# Assay results published in the supplement of paper PMC4166925.
# ± gives the standard deviation of the averaged measurements. The full ranking holds about 33,000 sequences; the median of “E-score (dimensionless, -0.5 to 0.5)” is about -0.046, and the highest 2% start at about 0.36. The list shows a part of the results.
# System: T1, SpTbr T-box DNA-binding domain (GST fusion)
# T1 sequence: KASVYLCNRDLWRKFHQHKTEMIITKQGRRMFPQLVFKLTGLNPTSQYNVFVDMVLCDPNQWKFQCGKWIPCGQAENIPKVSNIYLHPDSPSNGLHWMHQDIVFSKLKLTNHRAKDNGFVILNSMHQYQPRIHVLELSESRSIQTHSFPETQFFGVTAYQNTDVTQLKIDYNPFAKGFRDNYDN
# Experiment: PBM E-score of 8-mer (E-score (dimensionless, -0.5 to 0.5)); Tbr is Tbrain of the sea star Patiria miniata (Pm) or the sea urchin Strongylocentrotus purpuratus (Sp); higher = stronger binding preference; most listed sequences are background and not binding sites
# Settings: the construct has about 5 more residues each side
# Summary of the method: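 GST-fused Tbr T-box DNA-binding domains (the whole T-box plus about five flanking residues) were expressed in BL21 E. coli at 20 °C and purified by glutathione affinity chromatography. Universal Agilent oligonucleotide arrays were made double-stranded by primer extension, incubated with 200 nM protein in PBS (pH 7.5), then scanned and quantified. Every ungapped 8-mer was scored from probe intensities. The Universal PBM Analysis Suite gave each word an enrichment E-score, averaged over duplicate arrays.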
row,Sequence,PBM E-score of 8-mer
1,TACAGCAA,-0.09 ± 0.046
2,CGGGTTCC,-0.149 ± 0.082
3,AACTGAAC,-0.206 ± 0.09
4,CCAGCTGA,-0.1204 ± 0.00066
5,CATAAAAC,-0.0916 ± 0.077
6,ATATGACA,0.0532 ± 0.042
7,CTACCACA,0.0868 ± 0.013
8,CATGGCGA,0.0624 ± 0.041
9,ATGTTGGG,-0.0592 ± 0.0084
10,CCGCCTGC,0.165 ± 0.03
11,CCACTCAA,0.0906 ± 0.068
12,GAATTTAA,-0.146 ± 0.089
13,GTCGCCAA,0.245 ± 0.02
14,TCACAACA,0.363 ± 0.0075
15,CATCTGTA,-0.0572 ± 0.038
16,AGTGGCTC,-0.103 ± 0.045
17,AAGAACTA,-0.177 ± 0.055
18,AGGTACAG,-0.35 ± 0.027
19,CACCAACA,0.247 ± 0.042
20,TCGAGTCA,-0.184 ± 0.017
21,GATATTGA,-0.191 ± 0.084
22,TAGAAACA,-0.248 ± 0.0026
23,CTACGCAG,0.02 ± 0.0093
24,CGTCTGGC,-0.0753 ± 0.033
25,ATCGCAGC,0.0579 ± 0.024

row,Sequence,PBM E-score of 8-mer
1,GCTGTAAA,0.0886 ± 0.048
2,ATACACAA,-0.0928 ± 0.023
3,AAACGGGG,-0.0657 ± 0.052
4,CCGGCAGC,0.0786 ± 0.11
5,AGGCTCCG,-0.041 ± 0.009
6,ACGCGGAG,-0.184 ± 0.037
7,CGGTCCCC,-0.214 ± 0.017
8,GACCAGAC,-0.212 ± 0.023
9,AGGAGATA,-0.139 ± 0.0077
10,GGGCCGTA,-0.386 ± 0.01
11,CGTCTTAG,0.0956 ± 0.011
12,ATAGCAGG,0.0472 ± 0.074
13,AACTCAGG,-0.0823 ± 0.00092
14,CGCTGTAG,-0.117 ± 0.051
15,CGCCTTGC,0.137 ± 0.044
16,TGACGTAA,-0.098 ± 0.019
17,AGGATTTG,-0.245 ± 0.05
18,AATAATTC,-0.113 ± 0.025
19,ATCCCTGC,-0.0783 ± 0.063
20,ACCCAGAA,-0.0437 ± 0.029
21,AAATTAGG,-0.149 ± 0.072
22,AGGACTAC,-0.215 ± 0.06
23,AAGAGTCC,-0.222 ± 0.021
24,ATTTAGGA,-0.296 ± 0.037
25,CAGGCACC,-0.131 ± 0.02

row,Sequence,PBM E-score of 8-mer
1,GCCTCTGA,-0.087 ± 0.038
2,ATAATGAA,-0.167 ± 0.061
3,CTCGTCAG,0.0774 ± 0.031
4,CCGCTCTC,-0.00942 ± 0.013
5,ACATGCCA,0.135 ± 0.029
6,TCAGGAGA,-0.236 ± 0.035
7,CCGTAACG,0.016 ± 0.031
8,GAGGGAAC,-0.0664 ± 0.028
9,GAGGTAAA,-0.14 ± 0.026
10,ACGGTATA,0.119 ± 0.03
11,GGAGAGCC,-0.268 ± 0.026
12,AACGTGTC,0.372 ± 0.0067
13,CCGCTCAC,0.151 ± 0.069
14,ACGTTGGG,0.0926 ± 0.053
15,ATCCTGCC,-0.182 ± 0.054
16,GCTTACAC,0.219 ± 0.012
17,GGAACAAC,-0.138 ± 0.096
18,CCGTCTGA,-0.337 ± 0.039
19,CCGTTTGA,-0.108 ± 0.054
20,ACTTAAGA,-0.0415 ± 0.05
21,GTGCGGCA,0.0752 ± 0.035
22,ACAATAGC,-0.0388 ± 0.035
23,AGGATGTC,-0.126 ± 0.034
24,GAAACATA,0.00184 ± 0.075
25,CGATGACA,0.295 ± 0.046

row,Sequence,PBM E-score of 8-mer
1,CTGGCGGA,-0.184 ± 0.038
2,CTAGCCCA,-0.00492 ± 0.087
3,AGTTCAGA,-0.217 ± 0.0075
4,CGCTCACA,0.263 ± 0.015
5,AGGACCTG,-0.16 ± 0.091
6,ATCAGCTA,0.0373 ± 0.043
7,ATAGACGA,-0.186 ± 0.076
8,CCATGAAG,-0.0335 ± 0.015
9,GCGCACTA,0.0286 ± 0.014
10,GCGCGCCC,0.158 ± 0.059
11,AAGTGAAA,0.209 ± 0.069
12,CTACAACA,0.151 ± 0.021
13,ACTATTGC,-0.0869 ± 0.025
14,CTTAATCA,-0.0898 ± 0.078
15,AACGTTGC,0.0331 ± 0.065
16,AGCAGCGA,-0.0665 ± 0.023
17,ACGACATA,-0.0753 ± 0.025
18,GCAAACCC,-0.0464 ± 0.01
19,GTAAGGGA,0.0134 ± 0.015
20,AAACGGGT,-0.102 ± 0.05
21,CCTATAGG,-0.111 ± 0.077
22,CACCGCCC,0.12 ± 0.049
23,CTTGCTGA,0.0634 ± 0.045
24,CGAGTGTA,0.145 ± 0.029
25,CGCGAGTC,0.262 ± 0.035

row,Sequence,PBM E-score of 8-mer
1,ACACGGAT,0.147 ± 0.059
2,CTAGGACA,0.0859 ± 0.014
3,ACAATACT,0.115 ± 0.018
4,AAGCTTCA,-0.17 ± 0.011
5,TGCATAAA,-0.277 ± 0.1
6,GGTTGTCA,0.338 ± 0.0013
7,AGGACCTC,-0.19 ± 0.028
8,AAGACTCT,-0.235 ± 0.0099
9,ACTTCGTC,0.0823 ± 0.0061
10,AGTTCCGA,-0.0863 ± 0.035
11,GCATTTGA,-0.0218 ± 0.011
12,ACGGGGTA,-0.155 ± 0.037
13,CCGACTTC,-0.135 ± 0.06
14,AAAATTCC,-0.13 ± 0.086
15,CACGAAGC,-0.0302 ± 0.044
16,ACTTGCCT,-0.00622 ± 0.073
17,GTTTCCCA,0.0724 ± 0.023
18,GATGCGAC,0.216 ± 0.022
19,CGCGGCAC,0.233 ± 0.0063
20,GAAACGTA,-0.0747 ± 0.011
21,CCGAGGAC,-0.00813 ± 0.05
22,GAACAGCA,-0.0104 ± 0.052
23,ACAGTCGT,0.0314 ± 0.056
24,GTGGCGAA,0.307 ± 0.0044
25,ATGACAAC,0.222 ± 0.017

row,Sequence,PBM E-score of 8-mer
1,GCTCAACA,-0.116 ± 0.037
2,AAGCGACT,-0.0562 ± 0.00065
3,GCTCACGA,0.0514 ± 0.018
4,GATTGTCC,-0.243 ± 0.0045
5,CCGCCGGA,-0.153 ± 0.0055
6,AACCAAGC,-0.0913 ± 0.019
7,ATGCTGTC,0.0861 ± 0.067
8,ATGCGTGA,0.374 ± 0.0053
9,ACAGTTAC,0.0684 ± 0.0085
10,AACCACGC,0.0508 ± 0.067
11,CTATGGTA,-0.179 ± 0.0064
12,ACAATATC,0.00651 ± 0.023
13,CGGTCGGA,-0.319 ± 0.052
14,CGCGTACA,0.0943 ± 0.015
15,AGTGCGTC,-0.0869 ± 0.076
16,GACCATAA,0.196 ± 0.06
17,TAAAGGAA,-0.222 ± 0.016
18,CGTAGACC,-0.157 ± 0.018
19,AGCGTTCG,0.192 ± 0.054
20,ATAGGGCG,0.0377 ± 0.023
21,ATAAGCCA,-0.193 ± 0.018
22,ACAGGTGG,0.316 ± 0.026
23,CGCCCACA,0.247 ± 0.013
24,AAGGTAGC,0.0871 ± 0.026
25,CCTGCACG,-0.0522 ± 0.03

row,Sequence,PBM E-score of 8-mer
1,ATGCTACA,-0.0831 ± 0.002
2,CTATTGAC,0.0121 ± 0.067
3,CGTAAGAA,-0.113 ± 0.036
4,AGAGCTGC,-0.0124 ± 0.046
5,AGTATAGC,0.0777 ± 0.026
6,GATAATCC,-0.04 ± 0.076
7,AAGTCCCT,0.0335 ± 0.044
8,TCCCCTCA,-0.0995 ± 0.007
9,GGAGAAGA,-0.251 ± 0.07
10,CTTTGCTA,0.0404 ± 0.057
11,GCGTTTAC,0.0503 ± 0.062
12,CGCCGTAA,-0.0199 ± 0.046
13,AAACTCGA,0.0998 ± 0.05
14,CTGCTCGA,-0.213 ± 0.027
15,ACCATATG,0.1 ± 0.054
16,TAGCCCCA,-0.0427 ± 0.0069
17,CAGAAGAC,-0.192 ± 0.033
18,CGCGTGCC,0.103 ± 0.14
19,AGGTCCAG,-0.179 ± 0.042
20,CCCCCTCC,-0.0942 ± 0.036
21,GTGAGGCA,0.137 ± 0.011
22,CTAAGGAA,-0.158 ± 0.034
